According to the supplement of paper PMC9174493:
The list shows a part of the results. Single values of this set are uncertain. Values with irradiation are relative to irradiated vehicle.

The compounds below were run on A549-Dual (assay: NF-kB reporter (SEAP) activity, viability-corrected, relative to vehicle (fold change vs vehicle); higher = more activation of STING-IRF / NF-kB immune response reporter). Details: 3 µM; irradiation: 8 Gy/4 fr.
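Note: viability correction based on the alamar blue assay, with concentrations leaving 10% survival or less dropped.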

| Structure (SMILES) | NF-kB reporter |
| --- | --- |
| CC1=C(CC(=O)O)c2cc(F)ccc2/C1=C\c1ccc(S(C)=O)cc1 (stereo not given) [Sulindac] | 0.941 |
| C1N2CN3CN1CN(C2)C3 [Methenamine] | 1.53 |
| COc1ccc2cc(C(C)C(=O)[O-])ccc2c1.[Na+] (stereo not given) [Naproxen Sodium] | 1.4 |
| Cc1ccc(Cl)c(Nc2ccccc2C(=O)[O][Na])c1Cl [Meclofenamate Sodium] | 1.27 |
| O=C(OCCOCCO)c1ccccc1Nc1cccc(C(F)(F)F)c1 [Etofenamate] | 0.956 |
| O=C([O-])c1cc(N=Nc2ccc(O)c(C(=O)[O-])c2)ccc1O.[Na+].[Na+] [Olsalazine Sodium] | 1.05 |
| CC(=O)Nc1ccc(OC(=O)c2ccccc2OC(C)=O)cc1 [Benorylate] | 1.08 |
| CO/N=C(\C(=O)NC1C(=O)N2C(C(=O)OCOC(=O)C(C)(C)C)=C(C)CSC12)c1csc(N)n1.Cl (stereo not given) [Cefetamet pivoxil hydrochloride] | 0.925 |
| CCC(C(=O)O)c1ccc(N2Cc3ccccc3C2=O)cc1 (stereo not given) [Indobufen] | 1.28 |
| CS(=O)(=O)O.Cc1ccc(NC(=O)c2ccc(CN3CCN(C)CC3)cc2)cc1Nc1nccc(-c2cccnc2)n1 [Imatinib Mesylate (STI571)] | 0.815 |
| CC(C(=O)O)c1ccc(C(=O)c2ccccc2)s1 (stereo not given) [Tiaprofenic acid] | 1.43 |
| CCc1nc(N)nc(N)c1-c1ccc(Cl)cc1 [Pyrimethamine] | 1.71 |
| COc1cc(C2c3cc4c(cc3C(OC3OC5COC(C)OC5C(O)C3O)C3COC(=O)C23)OCO4)cc(OC)c1O (stereo not given) [Etoposide] | 1.04 |
| CN(C)CCC(c1ccc(Br)cc1)c1ccccn1.O=C(O)/C=C\C(=O)O (stereo not given) [Brompheniramine hydrogen maleate] | 1.27 |
| CC12CCC3c4ccc(O)cc4CC(CCCCCCCCCS(=O)CCCC(F)(F)C(F)(F)F)C3C1CCC2O (stereo not given) [Fulvestrant] | 0.855 |
| O=C([O-])CC(O)(CC(=O)[O-])C(=O)[O-].O=C([O-])CC(O)(CC(=O)[O-])C(=O)[O-].[BiH6+3].[K+].[K+].[K+] [Gastrodenol] | 1.57 |
| CCCCC1(COC(=O)CCC(=O)O)C(=O)N(c2ccccc2)N(c2ccccc2)C1=O [Suxibuzone] | 1.53 |
| O=C(O)Cc1ccccc1Nc1c(Cl)cccc1Cl.OCCN1CCCC1 [Diclofenac Epolamine] | 0.994 |
| Cl.N=C1CCCN1Cc1[nH]c(=O)[nH]c(=O)c1Cl.O=c1[nH]c(=O)n(C2CC(O)C(CO)O2)cc1C(F)(F)F.O=c1[nH]c(=O)n(C2CC(O)C(CO)O2)cc1C(F)(F)F (stereo not given) | 0.964 |
| NC(CO)(CO)CO [Trometamol] | 0.81 |

| Structure (SMILES) | NF-kB reporter |
| --- | --- |
| COc1ccc2c(c1)c(CC(=O)O)c(C)n2C(=O)c1ccc(Cl)cc1 [Indomethacin] | 1.63 |
| Cn1cnc([N+](=O)[O-])c1Sc1ncnc2nc[nH]c12 [Azathioprine] | 1.52 |
| NCCNc1ccc(NCCN)c2c1C(=O)c1ccncc1C2=O.O=C(O)/C=C\C(=O)O.O=C(O)/C=C\C(=O)O [Pixantrone Maleate] | 1.12 |
| CC(=O)Oc1cccc2c1C(=O)c1c(OC(C)=O)cc(C(=O)O)cc1C2=O [Diacerein] | 1.1 |
| CNCC(O)c1ccc(O)c(O)c1.O=C(O)C(O)C(O)C(=O)O (stereo not given) [Epinephrine bitartrate] | 1.15 |
| CC1(C(=O)O)CCC2(C)CCC3(C)C(=CC(=O)C4C5(C)CCC(OC6OC(C(=O)O)C(O)C(O)C6OC6OC(C(=O)O)C(O)C(O)C6O)C(C)(C)C5CCC43C)C2C1.N.N (stereo not given) [Diammonium Glycyrrhizinate] | 1.35 |
| CCCCCCCCCCCCCCCCCCOP(=O)([O-])OC1CC[N+](C)(C)CC1 [Perifosine (KRX-0401)] | 0.615 |
| COc1c2occc2cc2ccc(=O)oc12 [Methoxsalen] | 1.44 |
| O=C(O)CCCN1CCC(OC(c2ccc(Cl)cc2)c2ccccn2)CC1 (stereo not given) [Bepotastine] | 1.73 |
| CN(C)CCCOc1nn(Cc2ccccc2)c2ccccc12.Cl [Benzydamine HCl] | 1.13 |
| CC(C(=O)O)c1ccc2c(c1)[nH]c1ccc(Cl)cc12 (stereo not given) [Carprofen] | 1.12 |
| COc1cc2nccc(Oc3ccc(NC(=O)Nc4cc(C)on4)c(Cl)c3)c2cc1OC [Tivozanib (AV-951)] | 0.598 |
| Oc1ccc(/C=C/c2cc(O)cc(O)c2)cc1 [Resveratrol] | 1.44 |
| Nc1cccc2c1C(=O)N(C1CCC(=O)NC1=O)C2=O (stereo not given) [Pomalidomide] | 0.946 |
| COc1cc(C2c3cc4c(cc3C(OC3OC5COC(c6cccs6)OC5C(O)C3O)C3COC(=O)C23)OCO4)cc(OC)c1O (stereo not given) [Teniposide] | 0.903 |
| S=c1nc[nH]c2nc[nH]c12 [Mercaptopurine (6-MP)] | 0.781 |
| CC(C(=O)O)c1ccc2c(c1)CC(=O)c1ccccc1S2 (stereo not given) [Zaltoprofen] | 1.24 |
| Cc1nc(Nc2ncc(C(=O)Nc3c(C)cccc3Cl)s2)cc(N2CCN(CCO)CC2)n1.Cl [Dasatinib hydrochloride] | 0.721 |
| O=c1[nH]cc(F)c(=O)[nH]1 [Fluorouracil (5-Fluoracil, 5-FU)] | 1.27 |
| COc1cc(/C=C/C(=O)/C=C(O)/C=C/c2ccc(O)c(OC)c2)ccc1O [Curcumin] | 0.852 |
